The values below come from the supplement of paper PMC4604168 (melanoma cell lines).

The other results are listed elsewhere or left out. Single values are uncertain, as repeats are few or missing.
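Also: cells treated in 1,536-well plates, then fixed and DAPI-stained, with nuclei counted from automated high-throughput microscope images.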

This assay has as its system 501Mel. Nature of the assay: cell count relative to DMSO control; melanoma cells; higher = more viable cells. The note with it: library dose: standard library concentration; 72 h; first compound 2 µM.
On to `CCCCCCCCCCCCCCCCCCOP(=O)([O-])OC1CC[N+](C)(C)CC1` [Perifosine] + Cn1cc(/C=C2\C(=O)Nc3cccnc32)c2ccccc21 [GW441756] (partner dose 2 µM), for which the cell count was 86.6%.

In the case of `Cn1sc(=O)n(Cc2ccccc2)c1=O` + COc1cc2ncnc(Nc3ccc(Oc4ccccc4)cc3)c2cc1OC [SrcI1] (partner dose 10 µM), the cell count was 62%.

`CCCCCCCCCCCCCCCCCCOP(=O)([O-])OC1CC[N+](C)(C)CC1` [Perifosine] + Cc1cc([N+](=O)[O-])ccc1NS(=O)(=O)c1cc(Cl)ccc1Cl [FH535] (partner dose 5 µM) registered a cell count of 22.2%.

`Cn1sc(=O)n(Cc2ccccc2)c1=O` + CCc1ccc(CCOc2ccc(CC3SC(=O)NC3=O)cc2)nc1 [pioglitazone] (partner dose 10 µM) came in with a cell count of 75.7%.

`CCCCCCCCCCCCCCCCCCOP(=O)([O-])OC1CC[N+](C)(C)CC1` [Perifosine] + Oc1nc(-c2ccc(C(F)(F)F)cc2)nc2c1CSCC2 [XAV939] (partner dose 10 µM) came in with a cell count of 81%.

For `CCCCCCCCCCCCCCCCCCOP(=O)([O-])OC1CC[N+](C)(C)CC1` [Perifosine] + c1cc(-c2cnn3cc(-c4ccc(OCCN5CCCCC5)cc4)cnc23)ccn1 [Dorsomorphin] (partner dose 2 µM), the cell count is 36.1%.

As to `C[C@@H](N)c1ccc(C(=O)Nc2ccnc3[nH]ccc23)cc1` + COc1cc2ncnc(Nc3ccc(Oc4ccccc4)cc3)c2cc1OC [SrcI1] (partner dose 10 µM), the cell count is 74.2%.

Compound `CCCCCCCCCCCCCCCCCCOP(=O)([O-])OC1CC[N+](C)(C)CC1` [Perifosine] + O=c1cc(-c2cccc3c2Sc2ccccc2S3)oc(N2CCOCC2)c1 [KU55933] (partner dose 5 µM) came in with a cell count of 83.5%.

The compound `C[C@@H](N)c1ccc(C(=O)Nc2ccnc3[nH]ccc23)cc1` + Cc1cc([N+](=O)[O-])ccc1NS(=O)(=O)c1cc(Cl)ccc1Cl [FH535] (partner dose 5 µM) displayed a cell count of 89%.

For `CCCCCCCCCCCCCCCCCCOP(=O)([O-])OC1CC[N+](C)(C)CC1` [Perifosine] + CCN(CC)CCCCNc1ncc2cc(-c3cc(OC)cc(OC)c3)c(NC(=O)NC(C)(C)C)nc2n1 [PD173074] (partner dose 0.5 µM), the cell count was determined as 73.7%.

For the compound `C[C@@H](N)c1ccc(C(=O)Nc2ccnc3[nH]ccc23)cc1` + c1cc(-c2cnn3cc(-c4ccc(OCCN5CCCCC5)cc4)cnc23)ccn1 [Dorsomorphin] (partner dose 2 µM), the cell count worked out at 75.4%.

With `CCCCCCCCCCCCCCCCCCOP(=O)([O-])OC1CC[N+](C)(C)CC1` [Perifosine] + COc1cc2ncnc(Nc3ccc(Oc4ccccc4)cc3)c2cc1OC [SrcI1] (partner dose 10 µM), the cell count amounted to 66.2%.

In the case of `C[C@@H](N)c1ccc(C(=O)Nc2ccnc3[nH]ccc23)cc1` + O=c1cc(-c2cccc3c2Sc2ccccc2S3)oc(N2CCOCC2)c1 [KU55933] (partner dose 5 µM), the cell count is 114%.

In turn, `Cn1sc(=O)n(Cc2ccccc2)c1=O` + O=c1cc(-c2cccc3c2Sc2ccccc2S3)oc(N2CCOCC2)c1 [KU55933] (partner dose 5 µM) yielded a cell count of 78.3%.

`CCCCCCCCCCCCCCCCCCOP(=O)([O-])OC1CC[N+](C)(C)CC1` [Perifosine] + O=C1NC(=O)/C(=C/c2ccc(-c3ccc(F)cc3O)o2)S1 [AS252424] (partner dose 5 µM): the cell count was determined as 77.9%.

The compound `Cn1sc(=O)n(Cc2ccccc2)c1=O` + Oc1cc(-c2nc(-c3ccccc3)[nH]c2-c2ccncc2)ccc1Cl [L779450] (partner dose 1 µM) displayed a cell count of 69%.

The compound `Cn1sc(=O)n(Cc2ccccc2)c1=O` + Oc1nc(-c2ccc(C(F)(F)F)cc2)nc2c1CSCC2 [XAV939] (partner dose 10 µM) displayed a cell count of 70.1%.

On to `Cn1sc(=O)n(Cc2ccccc2)c1=O` + CCN(CC)CCCCNc1ncc2cc(-c3cc(OC)cc(OC)c3)c(NC(=O)NC(C)(C)C)nc2n1 [PD173074] (partner dose 0.5 µM), for which the cell count was 96.5%.

Compound `CCCCCCCCCCCCCCCCCCOP(=O)([O-])OC1CC[N+](C)(C)CC1` [Perifosine] + Oc1cc(-c2nc(-c3ccccc3)[nH]c2-c2ccncc2)ccc1Cl [L779450] (partner dose 1 µM) returned a cell count of 65.8%.
